# In the supplement of paper PMC8728848:
# Some of the results follow.
# B1: PX9937J-pdi-523-26-523 (Parabacteroides distasonis) (protein)
# chain: EPVSSISDANYWKSPDLFKAFNIGLHGLLRSQSSYNIFVLGEPRSDIYGDQPFGGEATQGVERFSYNTINAEFTGISNFANFYTTLNQINLMIRRTNETDLLGEAEKNYYLGQAYGLRAYIYFHLLRSWGDVIITTEPTLGSELDISHLDKAASPASEVMDLIKKDIDASEKAFGGDYSYKQGKCYWSKPATLMLKGEVYLWSGRQMGGGTGDYTVAKTALQDLQQNGNLKLQEKFTDVFSFNNKENSEMIFALHSGKEDDFMMWRDYNWRNNMVPQREYMAGYCDETGTPFLEIPGYNLQGLMRYQVKKDHYLKSFREGDTRLKGTLKAVYKKHEDGTLEYIAPIQYKFQGTTLEGSNERSWYDDYPIYRYADALLLLAEAKALLGEDPSTEINAVRERAYGSEYFNAHKNEVAYPNDKGSFYNDNPFEAGDENVMEAILKERLREFFFEGKRWYDLRRFGKDYVLKYTTAQESRLLWPINEGALTNNPALKQTPGY
# Assays:
# Experiment in all cases: glycan array binding signal (z-score within array); higher = stronger binding
# Conditions in all cases: glycan notation: IUPAC condensed, linker removed
# [1] = target: Fuc(a1-2)[Gal(a1-3)]Gal(b1-4)GlcNAc(b1-2)Man(a1-3)[Fuc(a1-2)[Gal(a1-3)]Gal(b1-4)GlcNAc(b1-2)Man(a1-6)]Man(b1-4)GlcNAc(b1-4)[Fuc(a1-6)]GlcNAc
# Outline: (§1)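 The binding signal is a Z-score computed within each array and averaged over linkers. Arrays of the same protein sequence at different concentrations or buffers were also averaged together. Data originate from 3228 arrays in the Consortium for Functional Glycomics database, kept only where the protein sequence was available.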
# [2] = target: Fuc(a1-2)[Gal(a1-3)]Gal(b1-4)GlcNAc(b1-3)GalNAc
# Outline: as §1
# [3] = target: Fuc(a1-2)[Gal(a1-3)]Gal(b1-4)GlcNAc(b1-3)[Fuc(a1-2)[Gal(a1-3)]Gal(b1-4)GlcNAc(b1-6)]GalNAc
# Outline: as §1
# [4] = target: Fuc(a1-2)[Gal(a1-3)]Gal(b1-4)GlcNAc(b1-6)GalNAc
# Outline: as §1
# [5] = target: Fuc(a1-2)[Gal(a1-3)]Gal(b1-4)[Fuc(a1-3)]Glc
# Outline: as §1
# [6] = target: Fuc(a1-2)[Gal(a1-3)]Gal(b1-4)[Fuc(a1-3)]GlcNAc
# Outline: as §1
# [7] = target: Fuc(a1-2)[Gal(a1-3)]Gal(b1-4)[Fuc(a1-3)]GlcNAc(b1-3)GalNAc
# Outline: as §1
# [8] = target: Fuc(a1-2)[Gal(a1-4)]Gal(b1-4)GlcNAc
# Outline: as §1
# [9] = target: Fuc(a1-2)[GalNAc(a1-3)]Gal
# Outline: as §1
# [10] = target: Fuc(a1-2)[GalNAc(a1-3)]Gal(b1-3)GalNAc(a1-3)[Fuc(a1-2)]Gal(b1-4)GlcNAc
# Outline: as §1
# [11] = target: Fuc(a1-2)[GalNAc(a1-3)]Gal(b1-3)GalNAc(b1-3)Gal(a1-4)Gal(b1-4)Glc
# Outline: as §1
# [12] = target: Fuc(a1-2)[GalNAc(a1-3)]Gal(b1-3)GlcNAc
# Outline: as §1
# [13] = target: Fuc(a1-2)[GalNAc(a1-3)]Gal(b1-3)GlcNAc(b1-2)Man(a1-3)[Fuc(a1-2)[GalNAc(a1-3)]Gal(b1-3)GlcNAc(b1-2)Man(a1-6)]Man(b1-4)GlcNAc(b1-4)GlcNAc
# Outline: as §1
# [14] = target: Fuc(a1-2)[GalNAc(a1-3)]Gal(b1-3)GlcNAc(b1-2)Man(a1-3)[Fuc(a1-2)[GalNAc(a1-3)]Gal(b1-3)GlcNAc(b1-2)Man(a1-6)]Man(b1-4)GlcNAc(b1-4)[Fuc(a1-6)]GlcNAc
# Outline: as §1
# [15] = target: Fuc(a1-2)[GalNAc(a1-3)]Gal(b1-3)GlcNAc(b1-3)GalNAc
# Outline: as §1
# [16] = target: Fuc(a1-2)[GalNAc(a1-3)]Gal(b1-3)GlcNAc(b1-6)GalNAc
# Outline: as §1
# [17] = target: Fuc(a1-2)[GalNAc(a1-3)]Gal(b1-4)Glc
# Outline: as §1
# [18] = target: Fuc(a1-2)[GalNAc(a1-3)]Gal(b1-4)GlcNAc
# Outline: as §1
# [19] = target: Fuc(a1-2)[GalNAc(a1-3)]Gal(b1-4)GlcNAc(b1-2)Man
# Outline: as §1
# [20] = target: Fuc(a1-2)[GalNAc(a1-3)]Gal(b1-4)GlcNAc(b1-2)Man(a1-3)[Fuc(a1-2)[GalNAc(a1-3)]Gal(b1-4)GlcNAc(b1-2)Man(a1-6)]Man(b1-4)GlcNAc(b1-4)GlcNAc
# Outline: as §1
# [21] = target: Fuc(a1-2)[GalNAc(a1-3)]Gal(b1-4)GlcNAc(b1-2)Man(a1-3)[Fuc(a1-2)[GalNAc(a1-3)]Gal(b1-4)GlcNAc(b1-2)Man(a1-6)]Man(b1-4)GlcNAc(b1-4)[Fuc(a1-6)]GlcNAc
# Outline: as §1
# [22] = target: Fuc(a1-2)[GalNAc(a1-3)]Gal(b1-4)GlcNAc(b1-3)Gal(b1-4)GlcNAc
# Outline: as §1
# [23] = target: Fuc(a1-2)[GalNAc(a1-3)]Gal(b1-4)GlcNAc(b1-3)Gal(b1-4)GlcNAc(b1-3)Gal(b1-4)GlcNAc
# Outline: as §1
# [24] = target: Fuc(a1-2)[GalNAc(a1-3)]Gal(b1-4)GlcNAc(b1-3)GalNAc
# Outline: as §1
# [25] = target: Fuc(a1-2)[GalNAc(a1-3)]Gal(b1-4)GlcNAc(b1-3)[Fuc(a1-2)[GalNAc(a1-3)]Gal(b1-4)GlcNAc(b1-6)]GalNAc
# Outline: as §1
# [26] = target: Fuc(a1-2)[GalNAc(a1-3)]Gal(b1-4)GlcNAc(b1-6)GalNAc
# Outline: as §1
# [27] = target: Fuc(a1-2)[GalNAc(a1-3)]Gal(b1-4)[Fuc(a1-3)]GlcNAc
# Outline: as §1
# [28] = target: Fuc(a1-2)[GalNAc(a1-3)]Gal(b1-4)[Fuc(a1-3)]GlcNAc(b1-3)GalNAc
# Outline: as §1
# [29] = target: Fuc(a1-2)[GalNAc(a1-4)]Gal(b1-4)GlcNAc
# Outline: as §1
# [30] = target: Fuc(a1-2)[GalNAc(b1-3)]Gal
# Outline: as §1
# Fuc(a1-3)GlcNAc = target: Fuc(a1-3)GlcNAc
# Outline: as §1
# [31] = target: Fuc(a1-3)[Gal(b1-4)]Glc6S
# Outline: as §1
# [32] = target: Fuc(a1-3)[Gal(b1-4)]GlcNAc
# Outline: as §1
# [33] = target: Fuc(a1-3)[Gal(b1-4)]GlcNAc(b1-2)Man
# Outline: as §1
# [34] = target: Fuc(a1-3)[Gal(b1-4)]GlcNAc(b1-2)Man(a1-3)[Fuc(a1-3)[Gal(b1-4)]GlcNAc(b1-2)Man(a1-6)]Man(b1-4)GlcNAc(b1-4)GlcNAc
# Outline: as §1
# [35] = target: Fuc(a1-3)[Gal(b1-4)]GlcNAc(b1-2)Man(a1-3)[Fuc(a1-3)[Gal(b1-4)]GlcNAc(b1-2)Man(a1-6)]Man(b1-4)GlcNAc(b1-4)[Fuc(a1-6)]GlcNAc
# Outline: as §1
# [36] = target: Fuc(a1-3)[Gal(b1-4)]GlcNAc(b1-3)Gal(b1-3)[Fuc(a1-4)]GlcNAc
# Outline: as §1
binder,measurement,setting,value
B1,glycan array binding signal (z-score),[1],-0.135
same,glycan array binding signal (z-score),[2],-0.655
same,glycan array binding signal (z-score),[3],-0.426
same,glycan array binding signal (z-score),[4],-0.556
same,glycan array binding signal (z-score),[5],-0.065
same,glycan array binding signal (z-score),[6],-0.016
same,glycan array binding signal (z-score),[7],0.082
same,glycan array binding signal (z-score),[8],-0.118
same,glycan array binding signal (z-score),[9],-0.296
same,glycan array binding signal (z-score),[10],-0.423
same,glycan array binding signal (z-score),[11],0.175
same,glycan array binding signal (z-score),[12],-0.541
same,glycan array binding signal (z-score),[13],-0.515
same,glycan array binding signal (z-score),[14],-0.256
same,glycan array binding signal (z-score),[15],-0.255
same,glycan array binding signal (z-score),[16],-0.087
same,glycan array binding signal (z-score),[17],-0.35
same,glycan array binding signal (z-score),[18],-0.485
same,glycan array binding signal (z-score),[19],-0.345
same,glycan array binding signal (z-score),[20],-0.534
same,glycan array binding signal (z-score),[21],0.009
same,glycan array binding signal (z-score),[22],0.126
same,glycan array binding signal (z-score),[23],-0.377
same,glycan array binding signal (z-score),[24],-0.492
same,glycan array binding signal (z-score),[25],-0.056
same,glycan array binding signal (z-score),[26],-0.639
same,glycan array binding signal (z-score),[27],-0.526
same,glycan array binding signal (z-score),[28],-0.702
same,glycan array binding signal (z-score),[29],-0.432
same,glycan array binding signal (z-score),[30],0.191
same,glycan array binding signal (z-score),Fuc(a1-3)GlcNAc,-0.25
same,glycan array binding signal (z-score),[31],-0.103
same,glycan array binding signal (z-score),[32],0.039
same,glycan array binding signal (z-score),[33],-0.124
same,glycan array binding signal (z-score),[34],-0.204
same,glycan array binding signal (z-score),[35],-0.6
same,glycan array binding signal (z-score),[36],-0.836
